Experimental data: patent publication US7592316B2, “Peptides as NS3-serine protease inhibitors of hepatitis C virus” (Schering Corporation, priority 2000, dated 2009)
*1 amine or outer side, *2 acyl side, *3 side chain or, on linkers, in order; H or OH if unused. Where a SMILES comes first, the peptide text is derived from it. [ ]: non-standard residue; d: D form. The star is where a group is joined. Pro(3R,4S-CMe2) = CC1(C)[C@@H]2[C@@H](C(=O)O)NC[C@@H]21; Pro(3S,4R-CMe2) = CC1(C)[C@H]2[C@@H](C(=O)O)NC[C@H]21; CF3C(Me)2OCO = CC(C)(OC(=O)*)C(F)(F)F; X8 = O=C(C(=O)[*:2])C(CC1CC1)N[*:1]; X4 = CCCCC(N[*:1])C(=O)C(=O)[*:2]; Phg = N[C@H](C(=O)O)c1ccccc1; Tle = CC(C)(C)[C@H](N)C(=O)O; X18 = CC(C)C(C)OC(=O)*

Target: HCV NS3/NS4A protease (strain 1a) (Hepatitis C virus genotype 1a, UniProt P27958)
Experiment: biochemical
Conditions: Table 5; HCV NS3/NS4A protease, spectrophotometric assay, 30° C., pH 6.5; read-out: Ki* Range

SMILES	Ki [nM]
CC(C)(C)OC(=O)N[C@H](C(=O)N1C[C@H]2[C@@H]([C@H]1C(=O)NC1(C(=O)C(N)=O)CC1)C2(C)C)C(C)(C)C	101 to 1000
C=CCCC(NC(=O)[C@@H]1[C@H]2[C@@H](CN1C(=O)[C@@H](NC(=O)NCc1ccccc1)C1Cc3ccccc3C1)C2(C)C)C(=O)C(=O)NCC=C (some centres unmarked)	101 to 1000
CC(OC(=O)N[C@H](C(=O)N1CC2C([C@H]1C(=O)NC(CC1CC1)C(=O)C(=O)NCC(=O)N[C@H](C(=O)N(C)C)c1ccccc1)C2(C)C)C(C)(C)C)C1CC1 (some centres unmarked)	1 to 100
CC1CCC(OC(=O)N[C@H](C(=O)N2C[C@H]3[C@@H]([C@H]2C(=O)NC(CC2CC2)C(=O)C(N)=O)C3(C)C)C(C)(C)C)C1 (some centres unmarked)	1 to 100
CCCCC(NC(=O)[C@@H]1[C@H]2[C@@H](CN1C(=O)[C@@H](NC(=O)OC(C)C(C)C)C(C)(C)C)C2(C)C)C(=O)C(=O)NCC(=O)N[C@H](C(=O)N(C)C)c1ccccc1 (stereo partly drawn) (X18-[Tle][Pro(3S,4R-CMe2)][X4]G[Phg]-NMe2)	1 to 100
CC1CCC(OC(=O)N[C@H](C(=O)N2C[C@H]3[C@@H]([C@H]2C(=O)NC(CC2CC2)C(=O)C(N)=O)C3(C)C)C2CCCCC2)CC1 (some centres unmarked)	101 to 1000
NC(=O)C(=O)C(CC1CCC1)NC(=O)[C@@H]1[C@@H]2[C@H](CN1C(=O)[C@@H](NC(=O)NC1CCCCC1)C1CCCCC1)C2(Cl)Cl (some centres unmarked)	1 to 100
C=CCCC(NC(=O)[C@@H]1[C@@H]2[C@H](CN1C(=O)C(NC(=O)OC(C)(C)C)C1CCCCCC1)C2(C)C)C(=O)C(=O)NCC=C (some centres unmarked)	101 to 1000
CCCC(NC(=O)C1C2CCC(C2)N1C(=O)C(NC(=O)OC(C)(C)C)C1CCCCC1)C(=O)C(=O)OCc1ccccc1 (centres unmarked)	> 1000
CC(C)C(C)NC(=O)N[C@H](C(=O)N1C[C@@H]2[C@H]([C@H]1C(=O)NC(CC1CCC1)C(=O)C(N)=O)C2(C)C)C(C)(C)C (some centres unmarked)	1 to 100

Further lines, results first:

Ki [nM]	SMILES
101 to 1000	CC1(NC(=O)N[C@H](C(=O)N2C[C@H]3[C@@H]([C@H]2C(=O)NC(CC2CC2)C(=O)C(N)=O)C3(C)C)C2CCCCC2)CC1 (some centres unmarked)
1 to 100	C=CCCC(NC(=O)[C@@H]1[C@H]2[C@@H](CN1C(=O)[C@@H](NC(=O)OC(C)(C)C)C1CCC(F)(F)CC1)C2(C)C)C(=O)C(=O)NCC=C (some centres unmarked)
101 to 1000	CCCC(NC(=O)C1C2C(CN1C(=O)C(NC(=O)O[C@H](C)C(C)C)C1Cc3ccccc3C1)C2(C)C)C(=O)C(N)=O (some centres unmarked)
1 to 100	CC1(C)[C@@H]2[C@@H](C(=O)NC(CC3CC3)C(=O)C(N)=O)N(C(=O)[C@@H](NC(=O)OC(C)(C)C(F)(F)F)C3CCCCC3)C[C@@H]21 (some centres unmarked)
1 to 100	CCCC(NC(=O)C1[C@H]2[C@@H](CN1C(=O)[C@@H](NC(=O)OCC(C)C)C(C)(C)C)C2(C)C)C(=O)C(=O)NCC(=O)N[C@H](C(=O)N(C)C)c1ccccc1 (some centres unmarked)
1 to 100	CC(C)(C)OC(=O)N[C@H](C(=O)N1C[C@H]2[C@@H](C1C(=O)NC(CC1CC1)C(=O)C(N)=O)C2(C)C)C1Cc2ccccc2C1 (some centres unmarked)

Same assay, conditions: Table 6; HCV NS3/NS4A protease, 30° C., pH 6.5; read-out: Ki*

SMILES	Ki [nM]
C#CC1(NC(=O)N[C@H](C(=O)N2C[C@H]3[C@@H]([C@H]2C(=O)NC(CC2CC2)C(=O)C(N)=O)C3(C)C)C(C)(C)C)CCCCC1 (some centres unmarked)	1 to 100
CC(CO)(CO)NC(=O)N[C@H](C(=O)N1C[C@H]2[C@@H]([C@H]1C(=O)NC(CC1CCC1)C(=O)C(N)=O)C2(Cl)Cl)C(C)(C)C (some centres unmarked)	101 to 1000
CN(C)C(=O)[C@@H](NC(=O)CNC(=O)C(=O)C(CCC(F)(F)F)NC(=O)[C@@H]1[C@H]2CC(C)(C)O[C@H]2CN1C(=O)[C@@H](NC(=O)OC(C)(C)C)C1CCCCC1)c1ccccc1 (some centres unmarked) [drawing 2291]	1 to 100
CN(C)C(=O)[C@@H](NC(=O)CNC(=O)C(=O)C(CC1CC1)NC(=O)[C@@H]1[C@@H]2[C@H](CN1C(=O)[C@@H](NC(=O)OC(C)(C)C(F)(F)F)C(C)(C)C)C2(C)C)c1ccccc1 (stereo partly drawn) ({CF3C(Me)2OCO}-[Tle][Pro(3R,4S-CMe2)][X8]G[Phg]-NMe2)	1 to 100

Results, then the molecule that gave them:

Ki [nM]	SMILES
1 to 100	CC(C)(C)OC(=O)N[C@H](C(=O)N1C[C@H]2[C@@H]([C@H]1C(=O)NC(CCC(F)(F)F)C(=O)C(=O)O)C2(C)C)C1CCCCC1 (some centres unmarked)
1 to 100	CCCC(NC(=O)[C@@H]1[C@@H]2[C@H](CN1C(=O)[C@@H](NC(=O)OC1CCC[C@@H]1C)C1CCCCC1)C2(Cl)Cl)C(=O)C(N)=O (some centres unmarked)
> 1000	CN(Cc1ccccc1)C(=O)CNC(=O)C(=O)C(CC1CC1)NC(=O)[C@@H]1[C@@H]2[C@H](CN1C(=O)[C@@H](NC(=O)OC(C)(C)C)C(C)(C)C)C2(C)C (some centres unmarked)
